# Source: publication PMC4336329 (PLoS ONE, 2015)
# Screen size: about 310,000 compounds; about 2,200 (0.71%) showed an effect of 50% or more. The effect is printed as a negative number. This is one part of the list.
# Target: human ether-à-go-go-related gene (hERG) potassium channel (human, UniProt Q12809)
# Test: primary screen, population patch clamp on CHO cells stably expressing hERG
# human ether-à-go-go-related gene (hERG) potassium channel, sequence (Q12809 whole entry, looked up): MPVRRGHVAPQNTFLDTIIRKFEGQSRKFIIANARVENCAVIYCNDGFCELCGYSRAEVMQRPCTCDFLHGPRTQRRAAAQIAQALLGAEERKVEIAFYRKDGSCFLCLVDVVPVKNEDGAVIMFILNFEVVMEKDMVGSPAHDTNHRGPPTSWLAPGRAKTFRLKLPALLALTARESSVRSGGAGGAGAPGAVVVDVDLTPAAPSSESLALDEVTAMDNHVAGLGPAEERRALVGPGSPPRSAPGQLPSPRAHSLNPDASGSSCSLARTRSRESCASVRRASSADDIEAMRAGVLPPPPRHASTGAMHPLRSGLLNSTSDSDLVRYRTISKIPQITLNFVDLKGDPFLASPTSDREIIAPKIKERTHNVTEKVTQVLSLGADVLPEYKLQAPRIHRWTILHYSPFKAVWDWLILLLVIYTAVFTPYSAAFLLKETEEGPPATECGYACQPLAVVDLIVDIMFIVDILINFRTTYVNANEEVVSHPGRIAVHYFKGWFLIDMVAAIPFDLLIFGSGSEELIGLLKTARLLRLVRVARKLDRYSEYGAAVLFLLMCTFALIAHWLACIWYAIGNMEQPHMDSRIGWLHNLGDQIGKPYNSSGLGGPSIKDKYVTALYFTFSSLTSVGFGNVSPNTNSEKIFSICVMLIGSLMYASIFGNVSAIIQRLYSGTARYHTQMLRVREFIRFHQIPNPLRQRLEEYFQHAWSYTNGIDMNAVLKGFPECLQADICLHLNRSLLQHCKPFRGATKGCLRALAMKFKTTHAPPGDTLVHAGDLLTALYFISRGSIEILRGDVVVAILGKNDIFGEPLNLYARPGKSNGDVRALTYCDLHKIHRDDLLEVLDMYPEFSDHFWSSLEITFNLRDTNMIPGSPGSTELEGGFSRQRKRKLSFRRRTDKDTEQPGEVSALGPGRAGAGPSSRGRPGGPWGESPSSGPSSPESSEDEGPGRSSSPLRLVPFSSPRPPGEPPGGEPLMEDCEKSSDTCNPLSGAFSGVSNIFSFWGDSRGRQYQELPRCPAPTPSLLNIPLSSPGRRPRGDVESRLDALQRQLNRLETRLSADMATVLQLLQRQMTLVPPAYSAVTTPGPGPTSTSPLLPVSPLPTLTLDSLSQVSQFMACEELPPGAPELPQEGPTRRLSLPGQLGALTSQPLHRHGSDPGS
row,SMILES,"hERG current change (%, negative = inhibition) at 1uM [%]"
1,O=C(O)c1ccccc1C(=O)NC1CCCc2ccccc21 (stereo not shown),7.62
2,Cc1cccc(/C=N\NC(=O)c2sccc2-n2cccc2)c1,12.6
3,COc1cccc(C(=O)NCC(c2cccs2)N2CCc3ccccc32)c1 (stereo not shown),9.51
4,CCOCC(=O)Nc1cccc(SC)c1,7.24
5,c1cc2c(cc1-c1[nH]ncc1CN1C[C@H]3CC[C@H]1C3)OCO2,5.45
6,O=C(CNC(=O)OCc1ccccc1)Oc1cc2oc(=O)cc(-c3ccccc3)c2cc1Cl,14.6
7,O=C(COC(=O)COc1ccccc1)Nc1ncc([N+](=O)[O-])s1,8
8,COc1ccc(-c2ccc3c(c2)S(=O)(=O)c2cccc(C(=O)NC4CCCC4)c2C3=O)cc1OC,10.5
9,CCn1cc(C(=O)O)c(=O)c2cnc(N3CCN(C(=S)NC(=O)c4ccccc4)CC3)nc21,11.2
10,CC(=O)c1c(C)nc2cc(Cl)ccc2c1N,-2.27
11,Cc1cccc(CCNC(=O)C2CCN(S(=O)(=O)c3cccc4cccnc34)CC2)c1,16.6
12,O=C(Cc1noc2ccccc12)NNC(=S)Nc1ccc(Cl)cc1,6.42
13,Cc1ccccc1C(=O)c1cccn1CC(=O)N1CCCCC1,13.2
14,COc1cc(S(=O)(=O)N2CCCCC2)ccc1NC(=O)c1ccccc1Cl,1.79
15,Nc1c(Cl)cc(-c2cn(CCC(=O)O)c(-c3ccncc3)n2)cc1Cl,19.9
16,COc1ccc(N=Nc2ccc(O)c3ncccc23)cc1,8.06
17,CCN(C(=O)CSc1nnc(Cn2nnc3ccccc32)o1)c1nc(C)cs1,11.7
18,CCOC(=O)c1c(N)sc(N)c1C(=O)OCC,7.28
19,CCCc1nnc(NC(=S)Nc2ccccc2)s1,12.5
20,CCCC[C@@H]1C[C@H]1[C@@H](NC(=O)c1ccco1)c1ccc(C(=O)OC)cc1,6.15
21,COc1cccc(C(=O)N(Cc2cccs2)C2CCS(=O)(=O)C2)c1 (stereo not shown),13.2
22,Cc1ccccc1NC(=S)N(Cc1ccccc1)Cc1cccnc1,5.75

row,SMILES,"hERG current change (%, negative = inhibition) at 1uM [%]"
1,COc1ccc(NC(=O)CN(C)C(=O)C2CCCO2)cc1 (stereo not shown),7.06
2,CCOc1ccc(CNC(=O)Cn2c(=O)c3cccn3c3ccccc32)cc1,11.7
3,O=C(c1cc2ccccc2oc1=O)N1CCC2(CC1)OCCO2,1.05
4,COCCCn1c(C)cc(C(=O)CN2c3cccc4cccc(c34)S2(=O)=O)c1C,0.435
5,Cc1cc(C)n(CC(O)CN(c2ccccc2)S(=O)(=O)c2ccc3ccccc3c2)n1 (stereo not shown),6.41
6,Cc1ccccc1C1=NC(C(F)(F)F)(C(F)(F)F)c2c(n(C)c(=O)n(C)c2=O)N1,11.8
7,CCCCSc1nnc([C@@H](NC(=O)OC(C)(C)C)C(C)C)o1,-3.35
8,CN(C)C(=O)Oc1cccc(OCc2n(C)c3ccccc3[n+]2C)c1.[Cl-],15.5
9,COc1ccc(/C=C/C(=O)c2cc(F)ccc2OC(=O)c2ccccc2)cc1OC,7.22
10,CCOC(=O)CNC(=O)CSc1ncnc2c1nnn2-c1ccc(F)cc1,8.12
11,Cc1cc(C)c(NC(=O)CC(C)(C)C)c(Cl)c1,15.3
12,CC(=O)c1ccc(NC(=S)Nc2ccn(Cc3ccc(Br)cc3)n2)cc1,-0.993
13,COC(=O)C1=NN(c2ccc(C)cc2)C2C(=O)N(c3ccccc3OC)C(=O)C12 (stereo not shown),14.5
14,COc1ccc(CNC(=O)CN(C(=O)Cn2nnc(-c3ccccc3F)n2)c2ccc(C)cc2)cc1,-1.39
15,COc1c2occc2c(OC(C)=O)c2c(=O)cc(C)oc12,12.4
16,O=S(=O)(NC1CCCCC1N1CCCCC1)c1ccccc1 (stereo not shown),20.5
17,Cc1ccc(S(=O)(=O)NC(C)C(=O)Nc2cccc([N+](=O)[O-])c2)cc1 (stereo not shown),7.29
18,CCC1CCc2c(sc(N)c2C(N)=O)C1 (stereo not shown),12.6
19,COc1ccccc1/C=C/CN1CCCC(CCC(=O)NCc2ccc(F)c(F)c2)C1 (stereo not shown),-26.2
20,O=C(Nc1ccc2c(c1)OCO2)C1CCN(C(=O)c2ccc([N+](=O)[O-])cc2)CC1,-74.6
21,CC1(C)Oc2ccc(C(=O)NN)cc2NC1=O,6.86
22,Cc1c(NC(=O)c2ccc(S(=O)(=O)N3CC(C)OC(C)C3)cc2)c(=O)n(-c2ccccc2)n1C (stereo not shown),4.29

row,SMILES,"hERG current change (%, negative = inhibition) at 1uM [%]"
1,COc1cccc2c1cc1c(=O)n(CC(=O)NCCCN3CCN(C)CC3)nc(C)n12,5.74
2,O=C(NCc1cccs1)C1CCN(S(=O)(=O)N2CCCC2)CC1,5.84
3,Cc1ccc(Cl)cc1N=C(N)N=C(N)N,14.9
4,Cc1nc(N)sc1N=Nc1ccccc1C(F)(F)F,6.39
5,COC(=O)c1sc2ncn(N)c(=O)c2c1C,12.8
6,O=C(Nc1cccc(-c2cccc(F)c2)c1)C1CCN(C2CCC2)CC1,-26.1
7,N#Cc1ccc(NC(=O)Cn2c3[n+](c4ccc(C(F)(F)F)cc42)CCCCC3)cc1.[Br-],15.2
8,O=C(NCc1ccco1)c1cccc2c1C(=O)N(C1CCCCC1)C2,4.93
9,COc1cc(C2C(C#N)=C(N)OC3=C2C(=O)CCC3)c([N+](=O)[O-])cc1OC (stereo not shown),9.86
10,O=S(=O)(c1ccc2c(c1)OCO2)N1CCN(c2nnnn2-c2ccccc2)CC1,0.0509
11,COc1cc(OC)cc(N(C(=O)CNC(=O)c2cccs2)C(C(=O)NCC2CCCO2)c2ccc(OC)c(OC)c2)c1 (stereo not shown),-0.816
12,COc1cc(C(=O)NCC(c2ccco2)N2CCCC2)ccc1OCc1ccccc1 (stereo not shown),2.31
13,CC(CNC(=O)c1ccc(OC2CCN(Cc3ccccn3)CC2)cc1)Oc1cccnc1 (stereo not shown),-18.6
14,CC(=O)c1cccc(N(C(=O)c2cnccn2)C(C(=O)NCc2ccccc2)c2ccco2)c1 (stereo not shown),8.22
15,CC(NC(=O)c1ccccc1)c1ccc(Br)cc1 (stereo not shown),12.1
16,Cc1ccc(NC(=O)C2CCCN(c3cnccn3)C2)c(C)c1 (stereo not shown),-0.933
17,CCOc1ccccc1NC(=O)COc1ccc(S(=O)(=O)N2CCCC2)cc1,-7.76
18,CCN(C(=O)COC(=O)c1cccnc1SC)c1c(N)n(Cc2ccccc2)c(=O)[nH]c1=O,7.74
19,CCCCCCc1cc2cc(S(=O)(=O)c3ccc(C)cc3)c(=O)oc2cc1O,14.5
20,CCC12CN3CCN(CC(C3)/C1=N/NC(=O)c1ccncc1)C2,15.5
21,CCN(CC)S(=O)(=O)c1cccc(C(=O)OCC(=O)NCc2ccccc2OC)c1,-2.72
22,CCc1nnc(N/N=C/c2ccccc2F)n1N.Cl,17

row,SMILES,"hERG current change (%, negative = inhibition) at 1uM [%]"
1,CCN1CCN(CCNC(=O)c2ccc(CS(=O)c3ccc(Br)cc3)o2)CC1 (stereo not shown),-10.8
2,C/C(=N\NC(N)=O)c1ccc(Cl)cc1,6.05
3,NC(=O)c1ccc(C(F)(F)F)cn1,14.7
4,Cc1ccc(S(=O)(=O)Nc2cc(-c3ccccc3)nn2C)cc1Cl,15.2
5,CC(C)(C)c1ccc(-c2nc(NCc3cccnc3)c3ccccc3n2)cc1,4.24
6,COc1ccc(OC)c(C2=NOC(C(=O)NCc3cccs3)C2)c1 (stereo not shown),6.2
7,Cc1ccc(N2CC(C(=O)OCC(=O)Nc3ccc(Cl)cc3)CC2=O)cc1 (stereo not shown),9.74
8,N#CNC1=NCN(CCc2ccccc2)CN1,9.92
9,CCCOC(=O)C1[C@H]2C(=O)N(CCCOC)C[C@]23C=C[C@H]1O3 (stereo partly shown),-2.12
10,COc1ccc(Nc2ccc(S(=O)(=O)N3CCCCCC3)cc2[N+](=O)[O-])cc1,0.702
11,COc1ccc(S(=O)(=O)NCC(=O)NCCc2ccc(OC)c(OC)c2)cc1,14.9
12,COc1cccc(CNC(=O)c2ccc(S(=O)(=O)N3CCCC3)cc2)c1,8.02
13,CC1CCN(CC(=O)c2cccs2)CC1,1.87
14,O=C(CSc1nccc(=O)[nH]1)N1N=C2/C(=C/c3ccco3)CCCC2C1c1ccco1 (stereo not shown),12.1
15,COc1cccc(Nc2n[nH]c(=S)s2)c1,16.4
16,Cn1c(SCC(=O)NCc2ccco2)nnc1-c1ccc(S(=O)(=O)N2CCOCC2)cc1,3.83
17,CS(=O)(=O)N1CCN(Cc2ccc([N+](=O)[O-])cc2)CC1,4.07
18,CCCCN(C(=O)c1cccc(S(=O)(=O)N2CC(C)OC(C)C2)c1)c1c(N)n(CC(C)C)c(=O)[nH]c1=O (stereo not shown),7.82
19,O=C(Nc1nnc(C2CC2)s1)c1ccccn1,11
20,N#Cc1nc(-c2cccs2)oc1N1CCN(c2ccccc2)CC1,11
21,CC1(C)NC(=O)N(CC(O)COc2ccc(-c3ccc(C#N)cc3)cc2)C1=O (stereo not shown),-12.9
22,Cc1nnc(NC(=O)CSc2ccc(-c3cccnc3)nn2)s1,11.5
